About 2,200 (0.71%) of roughly 310,000 compounds showed an effect of 50% or more. The effect is printed as a negative number. This is one part of the list. Where a SMILES comes first, the peptide text is derived from it. The star is where a group is joined. Boc = CC(C)(C)OC(=O)*
What follows are molecules tested against human ether-à-go-go-related gene (hERG) potassium channel (human, UniProt Q12809) (assay: primary screen, population patch clamp on CHO cells stably expressing hERG).
Sequence of human ether-à-go-go-related gene (hERG) potassium channel (Q12809 whole entry, looked up): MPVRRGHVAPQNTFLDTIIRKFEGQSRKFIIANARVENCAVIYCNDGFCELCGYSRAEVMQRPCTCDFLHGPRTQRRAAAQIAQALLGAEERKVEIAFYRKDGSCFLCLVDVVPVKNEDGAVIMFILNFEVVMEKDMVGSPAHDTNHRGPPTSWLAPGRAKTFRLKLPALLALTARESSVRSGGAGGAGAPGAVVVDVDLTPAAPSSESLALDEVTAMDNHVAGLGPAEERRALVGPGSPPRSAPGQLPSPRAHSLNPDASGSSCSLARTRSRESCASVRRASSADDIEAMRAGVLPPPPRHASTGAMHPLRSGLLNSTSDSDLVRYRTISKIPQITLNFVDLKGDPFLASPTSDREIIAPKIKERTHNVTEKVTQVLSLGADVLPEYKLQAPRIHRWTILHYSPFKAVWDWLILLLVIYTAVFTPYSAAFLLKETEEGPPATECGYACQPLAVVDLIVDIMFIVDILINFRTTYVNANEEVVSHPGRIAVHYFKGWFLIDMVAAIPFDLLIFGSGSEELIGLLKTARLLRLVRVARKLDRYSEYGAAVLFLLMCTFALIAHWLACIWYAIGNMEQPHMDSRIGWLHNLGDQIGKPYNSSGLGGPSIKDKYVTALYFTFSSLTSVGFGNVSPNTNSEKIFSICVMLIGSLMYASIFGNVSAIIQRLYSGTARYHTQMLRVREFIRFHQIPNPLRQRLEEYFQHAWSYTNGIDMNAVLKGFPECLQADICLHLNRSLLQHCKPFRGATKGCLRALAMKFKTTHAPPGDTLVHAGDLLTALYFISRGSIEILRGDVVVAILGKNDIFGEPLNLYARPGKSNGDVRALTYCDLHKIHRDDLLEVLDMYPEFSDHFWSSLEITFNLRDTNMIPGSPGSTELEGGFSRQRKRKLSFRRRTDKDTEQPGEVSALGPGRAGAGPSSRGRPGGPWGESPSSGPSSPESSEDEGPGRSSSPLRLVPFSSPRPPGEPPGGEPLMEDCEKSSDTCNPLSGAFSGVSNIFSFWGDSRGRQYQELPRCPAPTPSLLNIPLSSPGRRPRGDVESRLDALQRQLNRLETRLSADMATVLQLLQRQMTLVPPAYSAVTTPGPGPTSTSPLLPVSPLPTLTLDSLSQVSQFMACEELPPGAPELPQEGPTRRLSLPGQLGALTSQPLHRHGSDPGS

Point of comparison: CCN(CC)S(=O)(=O)c1ccc(N2CC(C(=O)N3CCOCC3)CC2=O)cc1 (stereo not shown), “hERG current change (%, negative = inhibition) at 1uM” value 2.06%. Against it:
- Cc1cc(C(=O)Cn2nnc3ccccc3c2=O)c(C)n1Cc1cccs1 — higher, 2.27%
- CCCC(=O)NC(c1ccc(Cl)cc1Cl)c1ccc2cccnc2c1O (stereo not shown) — higher, 3.54%
- COc1ccccc1C1(O)CCN(CC(=O)Nc2c(C)nn(C)c2C)CC1 — higher, 12.3%
- Cn1cnc(S(=O)(=O)NC2CCN(Cc3c(F)cccc3Cl)CC2)c1 — lower, 0.971%
- Cc1cc(C)c2c(NC(=S)NC(=O)c3ccccc3)nn(C)c2n1 — higher, 5.51%
- COc1ccc(CNC(=O)COc2ccc([N+](=O)[O-])cc2)cc1 — lower, -23%
- COc1ccc(S(=O)(=O)N2CCC(C(=O)NC3(C)CCS(=O)(=O)C3)CC2)cc1OC (stereo not shown) — higher, 20.2%
- Cc1ccc(/C=C/C(=O)Nc2ccc(S(=O)(=O)Nc3cc(C)nc(C)n3)cc2)cc1 — higher, 13.5%
- Cc1cc(C)c(OCC(=O)Nc2nnn(C)n2)c(Br)c1 — higher, 10.7%
- COc1ccc(NC(=O)CN2CCC(NC(=O)c3ccc(OC)cc3)CC2)cc1 — lower, -17.1%
- c1ccc(Oc2cc(-n3cncn3)ncn2)cc1 — higher, 4.41%
- CCOC(=O)C1=C(C)N=C2SCCC(=O)N2C1c1ccc(OC)cc1 (stereo not shown) — higher, 15.4%
- O=C(CSc1nnnn1-c1ccccc1)N1CCc2ccccc21 — higher, 10.1%
- O=C1CC(c2ccco2)CC(O)=C1C=NCC1CCNCC1 (stereo not shown) — higher, 13.4%
- CC(C)(c1ccc(O)cc1)c1ccc(O)cc1 — higher, 7.3%
- O=C(N/C=C/n1cnc2cc(C(F)(F)F)ccc21)c1ccccc1F — higher, 10.9%
- COc1cc(C(C)=O)ccc1OCC(=O)c1cc(C)n(C2CC2)c1C — higher, 10.1%
- Br.CCSC(=Nc1ccccc1)N1CCOCC1 — higher, 12.8%
- CCOc1ccc(N(CC(=O)NCc2ccco2)S(C)(=O)=O)cc1 — higher, 12.2%
- C=CCN1C=C/C(=C\C=C(C#N)C#N)c2ccccc21 — lower, -10.9%
- COc1cccc(C(C)NC(=O)c2c(F)cccc2Cl)c1 (stereo not shown) — higher, 4.36%
- N#Cc1ccsc1NC(=O)CSc1ncn[nH]1 — higher, 5.49%
- CNC(=O)c1ccc(-n2cccn2)nc1 — higher, 10.9%
- CC(Oc1ccc([N+](=O)[O-])cc1Cl)C(=O)Nc1ccc(C(N)=O)cc1 (stereo not shown) — higher, 6.23%
- O=C(O)c1cc(O)ccc1NC(=O)C1CCCO1 (stereo not shown) — higher, 5.02%
- CN(C)c1ccc(/C=N\NC(=O)c2csnn2)cc1 — higher, 15%
- Cc1ccc2c(c1)N(CC(=O)NCc1cccs1)C(=O)CO2 — higher, 9.71%
- CCOC(=O)N1CCN(C(=O)C2CCN(C(=O)c3ccc([N+](=O)[O-])cc3)CC2)CC1 — lower, -26.9%
- CCOC(=O)COc1cccc2c(=O)n(CC(=O)NCc3ccc(F)cc3)ccc12 — higher, 11%
- COc1ccc(S(=O)(=O)N2CCCCC2C(=O)O)cc1OC (stereo not shown) — higher, 23.4%
- COc1ccccc1CNC(=O)CSc1ccc(-c2cccc([N+](=O)[O-])c2)nn1 — lower, -2.8%
- O=C(CN1CCCc2ccccc21)NC(=O)NC1CCCCC1 — lower, -20.9%
- C/C(Cc1ccccc1)=N\NC(=O)CNC(=O)c1ccc2c(c1)OCCO2 — higher, 6.84%
- Cc1ccccc1C(=O)N1CCC(C(=O)N2CCCc3ccccc32)CC1 — higher, 3.32%
- O=C(c1ccc(-c2cccc(C(F)(F)F)c2)o1)N1CCN(c2ccccc2O)CC1 — higher, 13.7%
- CCN(CC(=O)Nc1cc(Cl)ccc1C)C(=O)COc1ccccc1F — higher, 14.4%
- COCCN1C(=O)N[C@@H](c2cccs2)C(C(=O)OC)=C1C — higher, 14.3%
- CC(=O)Oc1cccc(/C=c2\sc3nc(-c4ccco4)nn3c2=O)c1 — higher, 16.2%
- Cc1n[nH]c(=O)nc1NCc1ccc(Cl)cc1 — higher, 9.59%
- Cc1cccc(-n2nc([N+](=O)[O-])c(=NC3CCN(Cc4ccccc4)CC3)n2O)c1 — lower, -55.4%
- O=c1c2cn[nH]c2nc(SCc2ccc3c(c2)OCCO3)n1-c1ccccc1 — higher, 9.07%
- O=C(NNC(=O)C1CCN(Cc2ccccc2)CC1)c1cccc(Cl)c1 — higher, 8.3%
- Cc1cc(S(=O)(=O)N2CCOCC2)ccc1OCC(=O)Nc1cccc(C(F)(F)F)c1 — higher, 20%
- COCCNC(=O)C1Cc2c(ccc3ccccc23)O1 (stereo not shown) — lower, 1.33%
- CCOC(=O)C(NCCc1ccccc1)(NC(=O)CC)C(F)(F)F (stereo not shown) — higher, 3.41%
- O=C(C1CCCN(S(=O)(=O)Cc2ccccc2)C1)N1CCCCC1 (stereo not shown) — higher, 5.51%
- Cc1cc(C)c(C)c(S(=O)(=O)N2CCSCC2)c1C — higher, 13.9%
- O=C(Nc1cccc(F)c1)c1ccc(S(=O)(=O)N2CCCCC2)cc1 — higher, 17.7%
- CC1=NN(c2ccc(S(=O)(=O)O)cc2Cl)C(=O)C1 — higher, 12.4%
- O=C1C2(c3ccccc3)CN(CCCO)CC1(c1ccccc1)CN(CCCO)C2 — lower, -21.1%
- O=C(CSc1ccc2c(c1)OCCO2)Nc1ccc(Cl)cn1 — higher, 20.4%
- CCOC(=O)c1sc(NCc2ccco2)c(-c2nc3ccccc3s2)c1N — higher, 3.15%
- Cc1ccc(NC(=O)c2ccncc2)cc1S(=O)(=O)N(C)C — lower, 0.0196%
- CCCC(=O)N(CCN1CCOCC1)c1nc2cc(C)c(C)cc2s1.Cl — higher, 8.35%
- O=C(CCn1nnnc1CN1CCOCC1)N1CCC(c2cccc(Cl)c2)C1 (stereo not shown) — lower, 1.82%
- Cc1cc(C)c(C(=O)N2CCC3(CC2)OCCO3)c(C)c1 — higher, 15.3%
- CCN(CC)CC.COc1cccc(-n2c(=S)sc3c(=O)n(-c4ccccc4OC)c(=S)[nH]c32)c1 — higher, 14.7%
- COC(=O)CN1C(=O)COc2ccc(S(=O)(=O)NCc3ccc(Cl)cc3)cc21 — lower, -4.94%
- CC1CCN(C(=O)Cn2nnc(-c3ccc([N+](=O)[O-])cc3)n2)CC1 — lower, -8.27%
- Cc1nc2ccc(NC(=O)NCCCO)cc2s1 — higher, 4.95%
- NC(=O)c1cc(S(=O)(=O)NCc2cccs2)cs1 — higher, 12.5%
- N#CCCN1CCC(NC(=O)OCc2ccccc2)CCC1=O (stereo not shown) — lower, -9.77%
- CSCCC(NC(=O)c1ccccc1Cl)C(=O)NC1CCN(Cc2ccccc2)CC1 (stereo not shown) — lower, -15.8%
- N#C/C(=C/c1ccc(N2CCCC2)c([N+](=O)[O-])c1)c1nc2ccccc2[nH]1 — higher, 11%
- C/C=C/c1ccc(OCC(=O)Nc2ccc(C(N)=O)cc2)c(OC)c1 — higher, 11.5%
- COc1ccc(Nc2nc(CC(C)=O)ns2)cc1OC — higher, 5.22%
- Cc1c(O)cc2n(c1=O)-c1ccc(Cl)cc1C2(C)C — higher, 13%
- CCc1ccc2[nH]c(=O)c(C(c3nnnn3Cc3ccco3)N3CCC(C)CC3)cc2c1 (stereo not shown) — higher, 2.95%
- CCCOc1ccc(N2C(=O)CC(NCCCN3CCC(C(N)=O)CC3)C2=O)cc1 (stereo not shown) — lower, -12.5%
- O=C(COc1ccc(S(=O)(=O)NC2CCCCC2)cc1)NCC1CCCO1 (stereo not shown) — higher, 8.78%
- O=C(CSc1ccc(-c2cccnc2)nn1)Nc1ccc(F)cc1 — lower, 1.22%
- Cc1cccc(NC(=O)C(=O)NCC2CCCN2S(=O)(=O)c2cccs2)c1C (stereo not shown) — higher, 13.7%
- O=C(NCc1ccccc1CN1CCCC1)C1CCN(S(=O)(=O)c2ccc(Cl)cc2)CC1 — lower, -28.5%
- O=S1(=O)N=C(N/N=C/C=C/c2ccccc2)c2ccccc21 — higher, 7.24%
- Cc1occc1C(=O)NNC(=O)CN1C(=O)NC(C)(c2ccccc2)C1=O (stereo not shown) — higher, 16.9%
- CCCCCCOC(=O)NCC(O)c1ccccc1 (stereo not shown) — higher, 2.22%
- O=C(C1CCCN(S(=O)(=O)c2cccs2)C1)N1CCN(C2CCCCC2)CC1 (stereo not shown) — higher, 3.62%
- OC(CNC1Cc2ccccc2C1)COc1ccc(Cl)cc1 (stereo not shown) — lower, -11.2%
- Cc1ccc(NC(=S)c2ccccc2)cc1 — higher, 14.2%
- COC(=O)c1ccc(C(C2C(=O)CC(C)(C)CC2=O)C2C(=O)CC(C)(C)CC2=O)cc1 — higher, 15%
- CC(C(=O)Nc1ccccc1)N(C)Cc1cccs1 (stereo not shown) — higher, 6.69%
- CCc1nc(NCc2ccccn2)c2oc3ccccc3c2n1.Cl — higher, 7.35%
- Cl.O=C(COc1ccccc1)N1CCN(CC(O)COc2ccccc2)CC1 (stereo not shown) — lower, -24.5%
- CCOC(=O)C1CCN(Cc2ccc(Cl)nc2)CC1 — higher, 11.6%
- Cc1c(C)n2c3c(cccc13)CC2 — lower, 0.614%
- Cn1cc(C(=O)N/N=C/C=C/c2ccccc2)ccc1=O — higher, 7.6%
- Cc1ccc(C)c(COC(=O)c2cc(S(=O)(=O)N3CCCCC3)ccc2N2CCOCC2)c1 — higher, 9.45%
- Cc1ccc(C)c(NC(=O)CCN2CCCCC2)c1 — higher, 11.6%
- CCC(=O)Nc1nonc1-c1nc2ccccc2n1Cc1ccccc1 — higher, 7.36%
- CC(NC(=O)C(NC(=O)C1CCCN1C(=O)OC(C)(C)C)C(C)C)C(N)=O (stereo not drawn) (Boc-Pro-Val-Ala-NH2; configuration not given here) — higher, 3.29%

— publication PMC4336329 (PLoS ONE, 2015)
